Experimental findings from the supplement of paper PMC9446081 are described below.

Hit rate of the full screen: of about 39,000 compounds, about 220 (0.56%) showed activity. Some of the results follow.
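Note: static incubation at 37 °C against the wild-type strain, values averaged over two biological replicates.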

This assay deals with Escherichia coli K-12 BW25113. The assay is described as follows: relative growth (OD600 normalised to plate interquartile mean) (fraction); higher = less growth inhibition, active = 0.2 or less. Conditions: 50 µM; LB; incubation time: overnight (16-24 h).
For the molecule `C[C@@H]1CN([C@H](C)CO)C(=O)c2ccccc2-c2ccccc2CO[C@H]1CN(C)S(=O)(=O)c1ccc(C(F)(F)F)cc1`, the relative growth is inactive: 1.05. For the molecule `C[C@H](CO)N1C[C@H](C)[C@@H](CN(C)S(=O)(=O)c2ccccc2)Oc2cc(C#Cc3ccncc3)ccc2S1(=O)=O`, the relative growth was inactive: 1.02. `C=CCNC(=O)[C@H]1[C@@H]2C(=O)O[C@@H](c3ccccc3)[C@@H](c3ccccc3)N2[C@@H](c2ccc(OCCO)cc2)[C@]12C(=O)N(C(=O)OCCOC)c1ccc(C#Cc3ccc(OC)cc3)cc12`: the relative growth is inactive: 1.07.

For `Cc1cc(NN)nc(SCC(=O)NN)n1`, the relative growth was inactive: 0.962.

For the molecule `C[C@@H]1CCCCO[C@H](CN(C)CC2CCCCC2)[C@H](C)CN([C@H](C)CO)C(=O)c2cc(NC(=O)CCCN(C)C)ccc2O1`, the relative growth is inactive: 0.972. Turning to `COc1cc(/C=C/c2cc(O)cc(O[C@@H]3O[C@H](CO)[C@@H](O)[C@H](O)[C@H]3O)c2)ccc1O[C@@H]1O[C@H](CO)[C@@H](O)[C@H](O)[C@H]1O`, the relative growth was inactive: 0.981. As to `COc1ccc(S(=O)(=O)Nc2ccc3c(c2)C(=O)N([C@@H](C)CO)C[C@@H](C)[C@H](CN(C)S(=O)(=O)c2ccc(F)cc2)O3)cc1`, the relative growth was inactive: 1.03. In the case of `N=C(N=C(N)N)NCCc1ccccc1`, the relative growth was inactive: 1. With `CCCCC/C=C\C=C\CCCCCCCCC(=O)O`, the relative growth was inactive: 1. Turning to `CC(C)CN(C[C@@H](O)[C@H](Cc1ccccc1)NC(=O)O[C@H]1CCOC1)S(=O)(=O)c1ccc(N)cc1`, the relative growth is inactive: 1.03.

Consider `C[C@@H]1CCCCO[C@@H](CN(C)C(=O)Cc2ccccc2)[C@H](C)CN([C@H](C)CO)C(=O)c2cc(NC(=O)CCC(F)(F)F)ccc2O1`, for which the relative growth was inactive: 0.991. In the case of `C[C@@H]1CCCCO[C@H](CN(C)S(=O)(=O)c2cccs2)[C@H](C)CN([C@H](C)CO)C(=O)c2cc(NC(=O)c3ccccc3)ccc2O1` it was inactive: 1.01; in that of `O=C(C[C@@H]1C=C[C@H](NS(=O)(=O)c2ccc(F)cc2)[C@@H](CO)O1)N1CCC(Cc2ccccc2)CC1`, inactive: 1.01. Under `COc1ccc(CN(C)C[C@H]2OCCCC[C@H](C)Oc3ccc(NC(=O)c4ccncc4)cc3C(=O)N([C@H](C)CO)C[C@@H]2C)cc1` stands inactive: 0.998; under `C[C@H](CO)N1C[C@H](C)[C@@H](CN(C)C(=O)Nc2ccc(F)cc2)OCCCC[C@H](C)Oc2ccc(NC(=O)Nc3cccc4ccccc34)cc2C1=O`, inactive: 1.04; under `Cc1ccc(S(=O)(=O)N(C)C[C@H]2OCCCC[C@@H](C)Oc3ccc(NC(=O)Nc4ccc(C(F)(F)F)cc4)cc3C(=O)N([C@@H](C)CO)C[C@@H]2C)cc1`, inactive: 1.04. In the case of `C[C@H]1CN([C@@H](C)CO)C(=O)c2cc(C#Cc3cccc(F)c3)cnc2O[C@H]1CN(C)Cc1ccccn1` it was inactive: 1; in that of `C[C@@H]1CCCCO[C@@H](CN(C)C(=O)C2CCCCC2)[C@H](C)CN([C@H](C)CO)C(=O)c2cc(NS(=O)(=O)c3ccc(F)cc3)ccc2O1`, inactive: 0.993; in that of `Cc1ccc(NC(=N)N=C(N)N)c(C)c1`, inactive: 0.963.

Regarding `O=c1cc(Oc2ccc(O)cc2)oc2cc(O[C@@H]3O[C@H](CO[C@@H]4O[C@H](CO)[C@@H](O)[C@H](O)[C@H]4O)[C@@H](O)[C@H](O)[C@H]3O)cc(O)c12`, the relative growth is inactive: 0.994.

Take `C[C@H](CO)N1C[C@H](C)[C@H](CN(C)C(=O)Cc2ccccc2)OCCCC[C@H](C)Oc2ccc(NC(=O)Nc3cccc4ccccc34)cc2C1=O`: the relative growth was inactive: 1. For `C[C@@H]1CN([C@@H](C)CO)C(=O)c2cccc(NS(C)(=O)=O)c2O[C@H]1CN(C)S(=O)(=O)c1ccc(F)cc1`, the relative growth was inactive: 1.02.

For `COc1ccc(S(=O)(=O)N(C)C[C@@H]2Oc3ccc(NC(=O)CCN4CCOCC4)cc3C(=O)N([C@@H](C)CO)C[C@@H]2C)cc1`, the relative growth is inactive: 1.02.

With `CO[C@H]1CN(C)C(=O)c2cc(NS(C)(=O)=O)ccc2OC[C@@H](C)N(C(=O)CN(C)C)C[C@@H]1C`, the relative growth was inactive: 1.

Take `C[C@@H]1CN([C@@H](C)CO)S(=O)(=O)c2ccc(-c3cncnc3)cc2O[C@H]1CN(C)C(=O)C1CCCCC1`: the relative growth was inactive: 1.02. Consider `C[C@H]1CN([C@@H](C)CO)C(=O)c2cccc(NC(=O)Nc3cccc4ccccc34)c2O[C@H]1CN(C)S(=O)(=O)c1ccc(F)cc1`, for which the relative growth is inactive: 0.946.

In the case of `Cc1noc(C)c1NC(=O)Nc1ccc2c(c1)C(=O)N([C@H](C)CO)C[C@@H](C)[C@H](CN(C)S(C)(=O)=O)O2`, the relative growth was inactive: 0.983. Turning to `C[C@H](CO)N1C[C@H](C)[C@H](CN(C)C(=O)Nc2ccc(C(F)(F)F)cc2)Oc2ccc(NC(=O)Nc3ccc(F)cc3)cc2C1=O`, the relative growth is inactive: 0.977. Under `C[C@@H]1CCCCO[C@H](CN(C)C(=O)Nc2ccc(C(F)(F)F)cc2)[C@H](C)CN([C@H](C)CO)C(=O)c2cc(NC(=O)Cc3ccccc3)ccc2O1` stands inactive: 1.03. In the case of `O=P([O-])(O)C(O)(Cc1cccnc1)P(=O)(O)O.[Na+]` it was inactive: 1.08; in that of `C[C@@H]1CN([C@H](C)CO)C(=O)c2cccc(NS(=O)(=O)c3cn(C)cn3)c2O[C@@H]1CN(C)Cc1ccc(C(=O)O)cc1`, inactive: 1.03; in that of `CC(C)c1ccccc1O`, inactive: 0.97. Consider `Cc1c(-c2cnccn2)ssc1=S`, for which the relative growth was inactive: 1.13.

As for `C[C@@H]1CCCCO[C@@H](CN(C)C(=O)Nc2ccc(F)cc2)[C@H](C)CN([C@H](C)CO)C(=O)c2cc(NS(=O)(=O)c3cccs3)ccc2O1`, the relative growth was inactive: 1.03. In the case of `C[C@@H]1CN([C@@H](C)CO)C(=O)c2c(c3ccccc3n2C)-c2ccccc2CO[C@@H]1CN(C)Cc1cccc(F)c1` it was inactive: 0.985.

As to `O=C(CN1CCOCC1)NCC[C@@H]1CC[C@H](NC(=O)Nc2ccccc2)[C@@H](CO)O1`, the relative growth was inactive: 1.02. With `CCC(=O)Nc1ccc2c(c1)OC[C@@H](C)N(Cc1ccc(-c3ccccn3)cc1)C[C@@H](C)[C@H](OC)CN(C)C2=O`, the relative growth was inactive: 1. For the molecule `C[C@@H]1CCCCO[C@H](CN(C)Cc2ccccc2)[C@H](C)CN([C@@H](C)CO)C(=O)c2cc(NC(=O)c3ccncc3)ccc2O1`, the relative growth is inactive: 1.01.
